Measured values reported in publication PMC12820563, “FoxP3 forms a head-to-head dimer in vivo and stabilizes its multimerization on adjacent microsatellites”.
The list shows a part of the results.

target: T1, MBP-FoxP1dN (Mus musculus, UniProt P58462 326-579); test: PD-seq (MBP pull-down with sequencing); 20 mM Tris-HCl pH 7.5, 100 mM NaCl, 1.5 mM MgCl2, 0.4 uM protein, 0.1 uM dsDNA library, 30 min, room temperature, amylose pull-down; high values mean tight binding; conditions: protein: recombinant; tags: His6-MBP; chain copies: 2; dsDNA, one strand shown
T1 sequence: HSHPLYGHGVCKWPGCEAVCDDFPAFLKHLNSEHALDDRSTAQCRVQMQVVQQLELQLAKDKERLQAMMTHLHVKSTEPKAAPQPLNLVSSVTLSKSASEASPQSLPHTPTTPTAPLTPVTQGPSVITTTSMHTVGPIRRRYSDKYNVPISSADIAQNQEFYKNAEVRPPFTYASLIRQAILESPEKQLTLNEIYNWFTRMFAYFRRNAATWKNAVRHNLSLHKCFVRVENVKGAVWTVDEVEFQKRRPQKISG
Procedure, shortened: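 Binding is given as reads-per-million enrichment, pull-down over input, with replicates pooled. The bait was an N-terminus-lacking mouse FoxP3 or FoxP1 fragment with a His6-MBP tag, expressed in E. coli and used at 0.4 µM with 0.1 µM Klenow-filled degenerate double-stranded DNA library for 30 min at room temperature in Tris pH 7.5 buffer with NaCl and MgCl2. Amylose resin pull-down with three washes was followed by proteinase K release, PCR barcoding and Illumina sequencing.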

Row | Sequence | binding signal
1 | GATGATTGTTCTCCCAGCTGATGAATTGGGTGAGTCGAGTAAACAAATTTTCCTAATCTTTCTGTTCAAGCGCCATCTAC | 0.83 RPM ratio (pull-down/input)
2 | GATGATTGTTCTCCCAGCTGATGAATTCGACAGCTCGAGTAAACAAATTTTCCTAATCTTTCTGTTCAAGCGCCATCTAC | 0.763 RPM ratio (pull-down/input)
3 | GATGATTGTTCTCCCAGCTGATGAATTTTCTTGTTCGAGTAAACAAATTTTCCTAATCTTTCTGTTCAAGCGCCATCTAC | 0.994 RPM ratio (pull-down/input)
4 | GATGATTGTTCTCCCAGCTGATGAATTGTTACATTCGAGTAAACAAATTTTCCTAATCTTTCTGTTCAAGCGCCATCTAC | 1.49 RPM ratio (pull-down/input)
5 | GATGATTGTTCTCCCAGCTGATGAATTTCTTTGGTCGAGTAAACAAATTTTCCTAATCTTTCTGTTCAAGCGCCATCTAC | 0.881 RPM ratio (pull-down/input)
6 | GATGATTGTTCTCCCAGCTGATGAATTAGTAACGTCGAGTAAACAAATTTTCCTAATCTTTCTGTTCAAGCGCCATCTAC | 0.99 RPM ratio (pull-down/input)
7 | GATGATTGTTCTCCCAGCTGATGAATTTTGTGTCTCGAGTAAACAAATTTTCCTAATCTTTCTGTTCAAGCGCCATCTAC | 1.27 RPM ratio (pull-down/input)
8 | GATGATTGTTCTCCCAGCTGATGAATTCACAACTTCGAGTAAACAAATTTTCCTAATCTTTCTGTTCAAGCGCCATCTAC | 0.994 RPM ratio (pull-down/input)
9 | GATGATTGTTCTCCCAGCTGATGAATTATTCCCGTCGAGTAAACAAATTTTCCTAATCTTTCTGTTCAAGCGCCATCTAC | 0.986 RPM ratio (pull-down/input)
10 | GATGATTGTTCTCCCAGCTGATGAATTCACACGGTCGAGTAAACAAATTTTCCTAATCTTTCTGTTCAAGCGCCATCTAC | 0.895 RPM ratio (pull-down/input)
11 | GATGATTGTTCTCCCAGCTGATGAATTCGGCAGATCGAGTAAACAAATTTTCCTAATCTTTCTGTTCAAGCGCCATCTAC | 0.832 RPM ratio (pull-down/input)
12 | GATGATTGTTCTCCCAGCTGATGAATTGTTAAGTTCGAGTAAACAAATTTTCCTAATCTTTCTGTTCAAGCGCCATCTAC | 1.15 RPM ratio (pull-down/input)
13 | GATGATTGTTCTCCCAGCTGATGAATTGAATACCTCGAGTAAACAAATTTTCCTAATCTTTCTGTTCAAGCGCCATCTAC | 0.893 RPM ratio (pull-down/input)
14 | GATGATTGTTCTCCCAGCTGATGAATTGTTAAGGTCGAGTAAACAAATTTTCCTAATCTTTCTGTTCAAGCGCCATCTAC | 0.982 RPM ratio (pull-down/input)
15 | GATGATTGTTCTCCCAGCTGATGAATTTGCTCCGTCGAGTAAACAAATTTTCCTAATCTTTCTGTTCAAGCGCCATCTAC | 0.907 RPM ratio (pull-down/input)
16 | GATGATTGTTCTCCCAGCTGATGAATTCTGTTGATCGAGTAAACAAATTTTCCTAATCTTTCTGTTCAAGCGCCATCTAC | 2.26 RPM ratio (pull-down/input)
17 | GATGATTGTTCTCCCAGCTGATGAATTGTCGAAGTCGAGTAAACAAATTTTCCTAATCTTTCTGTTCAAGCGCCATCTAC | 1.02 RPM ratio (pull-down/input)
18 | GATGATTGTTCTCCCAGCTGATGAATTGTTATCGTCGAGTAAACAAATTTTCCTAATCTTTCTGTTCAAGCGCCATCTAC | 1.57 RPM ratio (pull-down/input)
19 | GATGATTGTTCTCCCAGCTGATGAATTGCCGCCGTCGAGTAAACAAATTTTCCTAATCTTTCTGTTCAAGCGCCATCTAC | 0.862 RPM ratio (pull-down/input)
20 | GATGATTGTTCTCCCAGCTGATGAATTTCCCCGCTCGAGTAAACAAATTTTCCTAATCTTTCTGTTCAAGCGCCATCTAC | 0.724 RPM ratio (pull-down/input)

Row | Sequence | binding signal
21 | GATGATTGTTCTCCCAGCTGATGAATTGCTACGGTCGAGTAAACAAATTTTCCTAATCTTTCTGTTCAAGCGCCATCTAC | 0.997 RPM ratio (pull-down/input)
22 | GATGATTGTTCTCCCAGCTGATGAATTACGCTGATCGAGTAAACAAATTTTCCTAATCTTTCTGTTCAAGCGCCATCTAC | 0.941 RPM ratio (pull-down/input)
23 | GATGATTGTTCTCCCAGCTGATGAATTTCGTGTTTCGAGTAAACAAATTTTCCTAATCTTTCTGTTCAAGCGCCATCTAC | 1.02 RPM ratio (pull-down/input)
24 | GATGATTGTTCTCCCAGCTGATGAATTCTACCATTCGAGTAAACAAATTTTCCTAATCTTTCTGTTCAAGCGCCATCTAC | 0.894 RPM ratio (pull-down/input)
25 | GATGATTGTTCTCCCAGCTGATGAATTAAGTTACTCGAGTAAACAAATTTTCCTAATCTTTCTGTTCAAGCGCCATCTAC | 1.03 RPM ratio (pull-down/input)
26 | GATGATTGTTCTCCCAGCTGATGAATTGGGCGCCTCGAGTAAACAAATTTTCCTAATCTTTCTGTTCAAGCGCCATCTAC | 0.918 RPM ratio (pull-down/input)
27 | GATGATTGTTCTCCCAGCTGATGAATTTCATCCATCGAGTAAACAAATTTTCCTAATCTTTCTGTTCAAGCGCCATCTAC | 0.911 RPM ratio (pull-down/input)
28 | GATGATTGTTCTCCCAGCTGATGAATTCTGGATCTCGAGTAAACAAATTTTCCTAATCTTTCTGTTCAAGCGCCATCTAC | 0.751 RPM ratio (pull-down/input)
29 | GATGATTGTTCTCCCAGCTGATGAATTCAACCTCTCGAGTAAACAAATTTTCCTAATCTTTCTGTTCAAGCGCCATCTAC | 0.787 RPM ratio (pull-down/input)
30 | GATGATTGTTCTCCCAGCTGATGAATTTCTAGAATCGAGTAAACAAATTTTCCTAATCTTTCTGTTCAAGCGCCATCTAC | 0.968 RPM ratio (pull-down/input)
31 | GATGATTGTTCTCCCAGCTGATGAATTGCTGCAGTCGAGTAAACAAATTTTCCTAATCTTTCTGTTCAAGCGCCATCTAC | 0.994 RPM ratio (pull-down/input)
32 | GATGATTGTTCTCCCAGCTGATGAATTTGGGAAGTCGAGTAAACAAATTTTCCTAATCTTTCTGTTCAAGCGCCATCTAC | 0.833 RPM ratio (pull-down/input)
33 | GATGATTGTTCTCCCAGCTGATGAATTACGAAAATCGAGTAAACAAATTTTCCTAATCTTTCTGTTCAAGCGCCATCTAC | 1.23 RPM ratio (pull-down/input)
34 | GATGATTGTTCTCCCAGCTGATGAATTCTTTTCTTCGAGTAAACAAATTTTCCTAATCTTTCTGTTCAAGCGCCATCTAC | 0.985 RPM ratio (pull-down/input)
35 | GATGATTGTTCTCCCAGCTGATGAATTTCGGCATTCGAGTAAACAAATTTTCCTAATCTTTCTGTTCAAGCGCCATCTAC | 1.09 RPM ratio (pull-down/input)
36 | GATGATTGTTCTCCCAGCTGATGAATTGGCGATGTCGAGTAAACAAATTTTCCTAATCTTTCTGTTCAAGCGCCATCTAC | 0.888 RPM ratio (pull-down/input)
37 | GATGATTGTTCTCCCAGCTGATGAATTTACGTGTTCGAGTAAACAAATTTTCCTAATCTTTCTGTTCAAGCGCCATCTAC | 1.31 RPM ratio (pull-down/input)
38 | GATGATTGTTCTCCCAGCTGATGAATTTCAGAAATCGAGTAAACAAATTTTCCTAATCTTTCTGTTCAAGCGCCATCTAC | 0.969 RPM ratio (pull-down/input)
39 | GATGATTGTTCTCCCAGCTGATGAATTATGTAAGTCGAGTAAACAAATTTTCCTAATCTTTCTGTTCAAGCGCCATCTAC | 1.13 RPM ratio (pull-down/input)
40 | GATGATTGTTCTCCCAGCTGATGAATTCGACCTATCGAGTAAACAAATTTTCCTAATCTTTCTGTTCAAGCGCCATCTAC | 0.855 RPM ratio (pull-down/input)
